± gives the standard deviation of the averaged measurements. The list shows a part of the results.
The sequences below were run on PfAP2-EXP AP2 domain (GST-tagged) (assay: gcPBM binding intensity (ln(normalized median fluorescence intensity)); higher = stronger DNA binding).
Summary of the method: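 An Agilent 4 × 180k array of primer-extended double-stranded 36-bp intergenic genomic probes, with negative controls, was incubated for 1 h with GST-tagged P. falciparum DNA-binding domains expressed in E. coli. Alexa488 anti-GST antibody detected bound protein, scanned at 488 nm. Binding intensity is the highest Masliner-normalised natural-log median intensity across replicate spots of either probe orientation.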

| Sequence | gcPBM binding intensity (ln) |
| --- | --- |
| TATACATATGAAAATACACACATACATACATATATA [CACACA_site8484] | 8.53 ± 0.42 |
| AAGGTATATATAACTACACACTTATATATAATCTAA [CACACA_site92] | 8.16 ± 0.39 |
| AGGAACAAAATATACTGTACTTTATTATTTTCAAAA [XGTACX_site4421] | 8.35 ± 0.37 |
| ATACATATTTTACATTCACACAACAAATTTATATTT [CACACA_site4700] | 8.65 ± 0.42 |
| ATTTTCCAAAATAATTGTACAGGAAAGAAATAATTA [XGTACX_site7424] | 8.64 ± 0.33 |
| TAATAAAATATGTACACACATACACCCATATATATA [CACACA_site1220] | 8.63 ± 0.39 |
| TGTAGTCTGGAGAAAAGTACATAGTATCTGGTAACC [XGTACX_site2025] | 8.62 ± 0.38 |
| AACAGACAGAAACACACACACATATATATATATATA [CACACA_site3394] | 10 ± 0.41 |
| ATATATTTTAATTGATGTACTTTTTTATGTTAATGA [XGTACX_site4316] | 8.42 ± 0.28 |
| TATATTTTGTTCTGTTGTACTAAAAAAATCTTTATA [XGTACX_site8372] | 8.56 ± 0.45 |
| TTACTTTTAACAAATGTGCGCAGTTATCACACAGAC | 8.81 ± 0.16 |
| ACAAAACAAAAAAACTCACACATATACGGCATGTCA [CACACA_site5608] | 8.66 ± 0.35 |
| ATATATATATATATATGTACTAAGAATTCTTTAAAA [XGTACX_site8476] | 10.3 ± 0.16 |
| ATTTATTTATTTATATGTACATATTTAAAGAGTTCA [XGTACX_site7631] | 8.52 ± 0.41 |
| AACAGTAACATTGAATGTACTTAATTTTAAGAAAAT [XGTACX_site2971] | 8.41 ± 0.26 |
| TATAAATATAAATATACACACATATATTTATTTATA [CACACA_site6890] | 8.13 ± 0.38 |
| ACACATAATATGTGTAGTACTTTTTCTTTAACATTA [XGTACX_site1436] | 8.64 ± 0.36 |
| ATTTATTGACTATTTACACACATATTTATTATAATA [CACACA_site1624] | 8.9 ± 0.52 |
| TTAAAATAAAGAAAATGTACATAAATTAAAATAAAG [XGTACX_site2281] | 8.85 ± 0.27 |
| TTTTTTTTTTTTTTTATAGTACATTACCAAAAAAAA [CACACA_negctrl_site1197] | 8.27 ± 0.39 |
| TGGGTAAACAGACACACACACATATAGATTTATATA [CACACA_site7026] | 8.65 ± 0.52 |
| ACACACATATATACATGTACATATATATATATATAT [XGTACX_site451] | 10.1 ± 0.3 |

| Sequence | gcPBM binding intensity (ln) |
| --- | --- |
| AAATTATATGAACATTGTACTTTATATATGTAAGAA [XGTACX_site1611] | 8.49 ± 0.38 |
| CTTCCAATAAAAAATGCACACATTGAAAATATTGAA [CACACA_site2688] | 8.54 ± 0.33 |
| TATTTTGTTCTTTCCACACACAAATACAGATATTGT [CACACA_site6097] | 8.86 ± 0.41 |
| ATTTGTATATATTAATGTACACACATGCGTATGTTC [XGTACX_site7579] | 8.73 ± 0.41 |
| TCTTATCCATATATTACACACTATAAATAGAAATTA [CACACA_site6274] | 8.39 ± 0.33 |
| TATTCAACATAATATGCACACAAAAATTATGGAACG [CACACA_site8660] | 8.47 ± 0.49 |
| AATATATAATTTTATAGTACATAATAAAAGAACAGG [XGTACX_site724] | 8.96 ± 0.35 |
| TTATATTATGCTTGAATGCACTTTGAAGCACAATCT [GTGCAC_site9789] | 8.44 ± 0.071 |
| TTTAATTTTTTTTAAACACACACATTACATTCAAAA [CACACA_site7926] | 8.31 ± 0.28 |
| ATCACATAAAATATGAATATATATTTTATATATATA [CACACA_negctrl_site340] | 8.56 ± 0.16 |
| TATATTTACGTATGTCGAACGTTATTTTGAACAACC [CACACA_negctrl_site1261] | 8.62 ± 0.43 |
| TTAAAAAAAAAAAGGTGTACTATAATTTAATATCAC [XGTACX_site6316] | 8.45 ± 0.27 |
| TTTATACACAAAAAATGTACATATATATAATGAATT [XGTACX_site1195] | 8.8 ± 0.42 |
| CGTTTATATAGTGATGCATGCATTGTTAACATGGTT [TGCATGCA_site418] | 9.77 ± 0.28 |
| CGCACAAAAATATACACACACACATATATATTTATT [CACACA_site3645] | 8.69 ± 0.59 |
| TGTATGTCTTTATTTTGTACACAATATAAAAAATTA [XGTACX_site5441] | 8.79 ± 0.32 |
| ACACAAAAAATAAAAATATATATATATTATATATAT [CACACA_negctrl_site1489] | 8.615 ± 0.007 |
| TAATAATAAATTGGTTGTACAACCTTATACAGAATA [XGTACX_site2592] | 8.63 ± 0.33 |
| TAAAAAAATATATATACATGCATAGAAAAAAAAAAA [TGCATGCA_site552] | 8.88 ± 0.29 |
| TTTTTTTATTAAAAATGTACAAAAATGAAAAAATAA [XGTACX_site8279] | 8.69 ± 0.4 |
| CATATAATTTTATGGGTGCATTTTTTTGTAAGACCA | 8.96 ± 0.57 |
| ATTTAATTTTTTTTTTTTTTTTTTCAATCCCCTTTT [CACACA_negctrl_site1013] | 8.21 ± 0.53 |

— the supplement of paper PMC11417369
